Data reported in US20230278972A1, “SUBSTITUTED HALOALKYL SULFONANILIDE HERBICIDES” (FMC Corporation, priority 2020, published 2023).

Key:
Details in all cases: Flood, 250 g ai/ha; visual rating after 13 to 15 days; scale of 0 to 100 where 0 is no effect and 100 is complete control
rice (Oryza sativa) = experiment: Test B flooded paddy test, rice
[1] = test system: ducksalad (Heteranthera limosa); experiment: Test B flooded paddy test, ducksalad
[2] = test system: barnyardgrass (Echinochloa crus-galli); experiment: Test B flooded paddy test, barnyardgrass
[3] = test system: sedge, umbrella (small-flower umbrella sedge, Cyperus difformis); experiment: Test B flooded paddy test, sedge, umbrella

Row | Compound | Plant response rating, Rice (rice (Oryza sativa)) | Plant response rating, Ducksalad [1] | Plant response rating, Barnyardgrass [2] | Plant response rating, Sedge, Umbrella [3]
1 | COC(=O)C1CCN(C(=O)c2cc(NS(=O)(=O)C(F)(F)F)c(C)cc2C)CC1 [Compound 50] | 0 | 0 | 0 | 0
2 | CCn1nc(Cl)cc(-c2cc(NS(=O)(=O)C(F)(F)F)c(C)cc2C)c1=O [Compound 51] | 0 | 0 | 0 | 65
3 | CCn1nc(C)cc(-c2cc(N(S(=O)(=O)C(F)(F)F)S(=O)(=O)C(F)(F)F)c(C)cc2C)c1=O [Compound 52] | 0 | 0 | 0 | 70
4 | COC(=O)N(c1cc(-c2ccnn(C)c2=O)c(C)cc1C)S(=O)(=O)C(F)(F)F [Compound 53] | 0 | 0 | 0 | 0
5 | COc1cnn(-c2cc(NS(=O)(=O)C(F)(F)F)c(C)cc2C)c(=O)c1 [Compound 54] | 0 | 0 | 0 | 0
6 | CCn1nccc(-c2cc(NS(=O)(=O)C(F)(F)F)c(C)cc2F)c1=O [Compound 55] | 0 | 45 | 0 | 80
7 | CC(=O)N(c1cc(-c2ccnn(C)c2=O)c(C)cc1C)S(=O)(=O)C(F)(F)F [Compound 56] | 75 | 20 | 40 | 90
8 | Cc1cc(C)c(-c2ccnn(CC(F)(F)F)c2=O)cc1NS(=O)(=O)C(F)(F)F [Compound 57] | 25 | 30 | 15 | 85
9 | CCCn1nccc(-c2cc(NS(=O)(=O)C(F)(F)F)c(C)cc2C)c1=O [Compound 58] | 0 | 0 | 0 | 0
10 | Cc1ccc(-c2ccnn(C)c2=O)cc1NS(=O)(=O)C(F)(F)F [Compound 59] | 0 | 0 | 0 | 0
11 | COc1ccnn(-c2cc(NS(=O)(=O)C(F)(F)F)c(C)cc2C)c1=O [Compound 60] | 0 | 0 | 0 | 0
12 | Cc1cc(C)c(N(S(=O)(=O)C(F)(F)F)S(=O)(=O)C(F)(F)F)cc1-c1cc(C(F)(F)F)nn(C)c1=O [Compound 61] | 0 | 0 | 0 | 0
13 | Cc1cc(-c2cc(NS(=O)(=O)C(F)(F)F)c(C)cc2C)c(=O)n(C)n1 [Compound 62] | 0 | 30 | 0 | 50
14 | Cc1cc(F)c(-c2ccnn(C)c2=O)cc1NS(=O)(=O)C(F)(F)F [Compound 63] | 0 | 15 | 0 | 75
15 | COc1c(Cl)nn(C)c(=O)c1-c1cc(NS(=O)(=O)C(F)(F)F)c(C)cc1C [Compound 64] | 0 | 0 | 0 | 0
16 | COc1cnn(C)c(=O)c1-c1cc(NS(=O)(=O)C(F)(F)F)c(C)cc1C [Compound 65] | 0 | 0 | 0 | 0
17 | Cc1ccc(-c2ccnn(C)c2=O)cc1N(S(=O)(=O)C(F)(F)F)S(=O)(=O)C(F)(F)F [Compound 66] | 20 | 20 | 35 | 90
18 | Cc1cc(C)c(N(S(=O)(=O)C(F)(F)F)S(=O)(=O)C(F)(F)F)cc1-c1cc(Br)nn(C)c1=O [Compound 67] | 0 | 15 | 0 | 85
19 | CCn1nc(C)cc(-c2cc(NS(=O)(=O)C(F)(F)F)c(C)cc2C)c1=O [Compound 68] | 55 | 15 | 35 | 75
20 | Cc1cc(C)c(-c2cc(Br)nn(C)c2=O)cc1NS(=O)(=O)C(F)(F)F [Compound 69] | 15 | 15 | 15 | 90

Row | Compound | Plant response rating, Rice (rice (Oryza sativa)) | Plant response rating, Ducksalad [1] | Plant response rating, Barnyardgrass [2] | Plant response rating, Sedge, Umbrella [3]
21 | COc1cc(-c2cc(NS(=O)(=O)C(F)(F)F)c(C)cc2C)c(=O)n(C)n1 [Compound 70] | 40 | 25 | 0 | 95
22 | Cc1cc(C)c(-c2cc(C(F)(F)F)nn(C)c2=O)cc1NS(=O)(=O)C(F)(F)F [Compound 71] | 40 | 0 | 0 | 95
23 | Cc1cc(C)c(-c2cc(Cl)nn(C)c2=O)cc1NS(=O)(=O)C(F)(F)F [Compound 72] | 15 | 75 | 20 | 85
24 | Cc1cc(C)c(N(S(C)(=O)=O)S(=O)(=O)C(F)(F)F)cc1-c1ccnn(C)c1=O [Compound 73] | 0 | 0 | 0 | 0
25 | Cc1cc(C)c(N(S(=O)(=O)C(F)(F)F)S(=O)(=O)C(F)(F)F)cc1-c1cc(Cl)nn(C)c1=O [Compound 74] | 0 | 0 | 0 | 0
26 | Cc1cc(-c2cc(N(S(=O)(=O)C(F)(F)F)S(=O)(=O)C(F)(F)F)c(C)cc2C)c(=O)n(C)n1 [Compound 75] | 0 | 0 | 0 | 0
27 | Cc1cc(C)c(N(S(=O)(=O)C(F)(F)F)S(=O)(=O)C(F)(F)F)cc1-c1ccnn(C)c1=O [Compound 76] | 45 | 10 | 35 | 45
28 | Cc1cc(C)c(-c2ccnn(CC(C)C)c2=O)cc1NS(=O)(=O)C(F)(F)F [Compound 77] | 15 | 40 | 10 | 85
29 | Cc1cc(C)c(-c2ccnn(C(C)C)c2=O)cc1NS(=O)(=O)C(F)(F)F [Compound 78] | 0 | 20 | 0 | 95
30 | CCn1nccc(-c2cc(NS(=O)(=O)C(F)(F)F)c(C)cc2C)c1=O [Compound 79] | 20 | 0 | 0 | 85
31 | Cc1cc(C)c(-c2ccnn(C)c2=O)cc1NS(=O)(=O)C(F)(F)F [Compound 80] | 55 | 40 | 70 | 95
32 | COc1cc(C)c(NS(=O)(=O)C(F)(F)F)cc1-c1ccnn(C)c1=O [Compound 81] | 0 | 0 | 0 | 0
33 | Cc1cc(C)c(-n2nccc(Cl)c2=O)cc1NS(=O)(=O)C(F)(F)F [Compound 82] | 0 | 75 | 0 | 85
34 | Cc1cc(C)c(-n2ncccc2=O)cc1NS(=O)(=O)C(F)(F)F [Compound 83] | 0 | 0 | 0 | 0
35 | Cc1cc(C)c(-n2nccc(C)c2=O)cc1NS(=O)(=O)C(F)(F)F [Compound 84] | 0 | 0 | 0 | 0
36 | Cc1ccc(=O)n(-c2cc(NS(=O)(=O)C(F)(F)F)c(C)cc2C)n1 [Compound 85] | 0 | 0 | 0 | 0
37 | COC1CCCN(C(=O)c2cc(N(C(=O)C(C)C)S(=O)(=O)C(F)(F)F)c(C)cc2C)C1 (stereo not drawn) [Compound 91] | 0 | 55 | 0 | 55
38 | COC1CCCN(C(=O)c2cc(N(C(C)=O)S(=O)(=O)C(F)(F)F)c(C)cc2C)C1 (stereo not drawn) [Compound 93] | 0 | 50 | 25 | 70
39 | CO[C@@H]1CCCN(C(=O)c2cc(NS(=O)(=O)C(F)(F)F)c(C)cc2C)C1 [Compound 94] | 20 | 40 | 35 | 45
